Screen size: about 94,000 compounds; about 6,200 (6.6%) were called active. Inconclusive means that the source gave no clear call. Such entries were picked first, then a sample of the others. Calls come from the whole dose curve; as a rule, active = well fitted inhibition curve with a large enough effect; inconclusive = small, poorly fitted or top-dose-only effect; inactive = flat fitted curve, though single readings scatter. A potency beside an inconclusive call is a rough fit, not a confirmed value.
Assay: Cytotoxic Profiling in HEK 293 Cell Line of Diverse Libraries Using Quantitative High-Throughput Screening; note: nearly all actives have a fitted effect of over 60% in size
Settings: HEK 293 viability, ATP luminescence (CellTiter-Glo), 48-72 h; series mostly up to 115 µM
How it was run: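 HEK 293 cells seeded at 250 cells/well were exposed to compound for 48 or 72 hr at 37 degree Celsius. Viability taken as ATP content by CellTiter-Glo luminescence.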
Potency is the fitted concentration of half-maximal effect; tags give direction and shape of the fitted curve.

SMILES | Potency
COc1ccccc1-c1cc(-c2cccnc2)nc2c(C)noc12 | inactive
CCOc1ccccc1N1CCN(c2ncncc2-c2nc(-c3ccccc3)no2)CC1 | inconclusive: 56.2 µM [inhibitor, partial curve, poor fit]
COc1ccc(Nc2nc(-c3ccccc3F)no2)cc1OC | inconclusive: 28.2 µM [inhibitor, partial curve, poor fit]
COc1cc(NC(=O)Cn2c(-c3ccc(F)cc3)nc(C)c(CCO)c2=O)cc(OC)c1 | inconclusive: 50.1 µM [inhibitor, partial curve]
C[S+](=O)([O-])c1ccc(-c2cnc3n[nH]c(-c4ccc5c(c4)OCO5)c3n2)cc1 | inconclusive: 12.6 µM [inhibitor, full curve, poor fit]
Cc1ccc(-c2cn3c(n2)N(C(=O)c2nc4ncccn4n2)CCC3)cc1 | active: 39.8 µM
CCOCCNC(=O)CNC(=O)c1cccc(-c2ccc(SC)cc2)c1 | inconclusive: 50.1 µM [inhibitor, partial curve, poor fit]
COc1ccc(-c2cc(N3CCN(C(=O)c4ccc(F)c(F)c4)CC3)n[nH]2)cc1 | inconclusive: 50.1 µM [inhibitor, partial curve, poor fit]
CC(=O)N1CCc2[nH]cnc2C12CCN(C(=O)Cn1nccc1C)CC2 | inactive
C#CCNC(=O)C1CCCCN1Cc1ccc(-c2cc(F)ccc2OC)cc1 (stereo not drawn) | inconclusive: 50.1 µM [inhibitor, partial curve, poor fit]
O=C1NCN(Cc2ccc(Cl)cc2)C12CCN(Cc1ccc(F)cc1)CC2 | active: 28.2 µM
O=C(NCCc1ccc(Cl)cc1)c1ccc2nnc(-c3ccc(OC(F)(F)F)cc3)n2c1 | active: 79.4 µM
CN(C)c1cccc(NC(=O)c2ccc3c(c2)NC(C)(COc2ccccc2)CO3)c1 (stereo not drawn) | inconclusive: 10 µM [inhibitor, full curve, poor fit]
COc1ccc(-c2cc3c(=O)n(CCNC(=O)c4ccc(OC)nc4)ccn3n2)cc1 | inactive
O=C(NC1CCN(c2ccnc3ccnn23)CC1)c1ccccc1 | inconclusive: 63.1 µM [inhibitor, full curve, poor fit]
O=C1CCN(C(=O)CCc2ccccc2)CCCOCCN1 | inconclusive: 44.7 µM [inhibitor, partial curve]
CCCCN1C(=O)C(CC(=O)N(C)C)Sc2ncccc21 (stereo not drawn) | inactive
CC1(c2ccccc2)N(Cc2cccnc2)C(=O)OC12CCN(C(=O)c1ccc(Oc3ccccc3)cc1)CC2 (stereo not drawn) | active: 25.1 µM
COCCOC1CN(C2CCN(Cc3ccc(F)c(F)c3)CC2)C12CCCCC2 (stereo not drawn) | inconclusive: 44.7 µM [inhibitor, partial curve, poor fit]
Cc1ccccc1NC(=O)c1ccc2c(c1)OCCN(C1CCC1)C2 | inconclusive: 8.91 µM [inhibitor, full curve, poor fit]
O=C(c1ccc(Cl)cc1)N1CC2(CCCN2C2COC2)Cc2ccccc21 (stereo not drawn) | inconclusive: 89.1 µM [inhibitor, partial curve, poor fit]

SMILES | Potency
CC(=O)N1CCC(c2nn(-c3ccccn3)c(=O)[nH]2)CC1 | inactive
CCCOc1ccc(CN2C[C@@H](CO)[C@H](c3ccccn3)C2)cc1 | inconclusive: 50.1 µM [inhibitor, partial curve, poor fit]
CSCC(=O)Nc1nc2c(s1)C[C@]1(C)CC[C@@H]3[C@H](OC(=O)[C@H]3C)[C@H]1[C@@H]2C | active: 35.5 µM
O=C(c1ccc(Cl)cc1)N1CC2(CCN(Cc3c[nH]c4ccccc34)CC2)Cc2ccccc21 | active: 20 µM
CCN(CC)C(=O)N1CCC(n2c(C)cnc2C2CCOCC2)CC1 | inactive
CC(C)CNC(=O)c1cc(-c2ccc(F)cc2)c2nncn2n1 | inconclusive: 31.6 µM [inhibitor, partial curve, poor fit]
COc1ccc(C(=O)N2C(C(=O)N3CCCC3)COC23CCN(C(=O)CC(C)(C)C)CC3)cc1 (stereo not drawn) | inconclusive: 89.1 µM [inhibitor, single point]
O=C1NCCCCCCN(S(=O)(=O)c2ccccc2)[C@H]2CCC[C@@H]12 | inconclusive: 56.2 µM [inhibitor, partial curve, poor fit]
Cc1ccc(O)c(CN2CC[C@@H](c3ccc4ccccc4c3)[C@H](O)C2)n1 | active: 44.7 µM
Cc1nc(CN2CC3(CCN(C)C3)c3cc(C(=O)NCc4cccs4)ccc32)cs1 (stereo not drawn) | inconclusive: 112 µM [inhibitor, partial curve, poor fit]
COc1ccc(S(=O)(=O)N2CCCC(Cc3noc(-c4ccncc4)n3)C2)cc1 (stereo not drawn) | inconclusive: 79.4 µM [inhibitor, partial curve, poor fit]
CC(=O)N[C@H]1C[C@@H](Cc2cc(CN(C)C)on2)C1(C)C | inconclusive: 141 µM [inhibitor, single point]
CCNC(=O)CCc1c(C)nn(-c2ccccc2)c1Oc1ccccc1F | inconclusive: 89.1 µM [inhibitor, single point]
O=C(c1ccco1)N1CCC2(CC1)CC(N(Cc1ccccc1)C1CC1)CCO2 (stereo not drawn) | inconclusive: 35.5 µM [inhibitor, partial curve, poor fit]
COc1ccc(NC(=O)c2ccc3c(c2)NC(C)(CNc2ccccc2)CO3)cn1 (stereo not drawn) | active: 44.7 µM
CSc1cccc(NC(=O)Cn2c(N3CCc4ccccc4C3)nc(C)cc2=O)c1 | inconclusive: 35.5 µM [inhibitor, full curve]
O=C1CN(C(=O)c2cccc(C(F)(F)F)c2)CC(O)CN1CCCc1ccccc1 (stereo not drawn) | inconclusive: 44.7 µM [inhibitor, partial curve]
COc1ccc(C(=O)N2CCc3ccc(C(=O)NCc4cccc(F)c4)cc32)cc1 | active: 39.8 µM
CC(C)NC(=O)N(C1CC1)C1CCOC2(CCN(C(=O)Cc3ccsc3)CC2)C1 (stereo not drawn) | inactive
CN(C)c1nccnc1OC1CCN(C(=O)C2CCCCC2)C1 (stereo not drawn) | inconclusive: 50.1 µM [inhibitor, partial curve, poor fit]
Cc1nnc(-c2cc(Nc3cccc(N(C)C)c3)ccn2)n1Cc1ccccc1 | inconclusive: 50.1 µM [inhibitor, partial curve, poor fit]

SMILES | Potency
Cc1ccccc1CN1CC2(COCC1=O)CN(c1ccc(C(F)(F)F)cn1)C2 | active: 89.1 µM
O=C(Nc1ccc2[nH]ccc2c1)C1=NO[C@@H]2CN(c3ccccn3)C[C@H]12 | inconclusive: 126 µM [inhibitor, single point]
COc1ccc(C(=O)N2CCOCC3(CN(Cc4cc(C)cc(F)c4)C3)C2)cc1OC | active: 8.91 µM
O=C1NC2(CN(C(=O)c3ccc(C(F)(F)F)cc3)C2)Oc2ccccc21 | inconclusive: 79.4 µM [inhibitor, partial curve, poor fit]
COc1ccc(C(=O)N2CC[C@@H]3COCCN(Cc4ccncc4)[C@@H]3C2)c(OC)c1 | inactive
Cc1nc(C)c(C(=O)N2CCCC2c2nc(CCOCC3CCCC3)no2)s1 (stereo not drawn) | inconclusive: 50.1 µM [inhibitor, partial curve, poor fit]
O=C(C1CC1)N1CCN(c2ccnc3ccnn23)CC1 | inactive
CC(C)(C)c1ccc(C(=O)Nc2nc3c(s2)C[C@@H]2[C@](C)(CO)[C@H](O)CC[C@@]2(C)[C@@H]3CC(=O)N2CCOCC2)cc1 | inconclusive: 79.4 µM [inhibitor, partial curve, poor fit]
CNC(=O)c1cc[nH]c1C1CCCN(C(=O)Cc2c[nH]c3ccccc23)C1 (stereo not drawn) | inactive
CC(C)c1noc(CC2CCN(C(=O)c3ccc(F)c(Cl)c3)CC2)n1 | inconclusive: 50.1 µM [inhibitor, partial curve, poor fit]
CCn1nccc1C(=O)N1CCC(Cc2ccc(CCC(=O)NC3CC3)cc2)CC1 | inconclusive: 79.4 µM [inhibitor, single point]
O=C(NC[C@H]1O[C@H](Cc2cc(CN3CCN(c4ccccc4)CC3)on2)CC[C@@H]1O)c1ccccc1 | inactive
Cc1nn(-c2ccccc2)c2c1C(C)N(C1CCN(C(=O)C3CCCC3)CC1)C2=O (stereo not drawn) | inconclusive: 50.1 µM [inhibitor, partial curve, poor fit]
O=C1CC(NC2CCSCC2)CN1CCc1cccc(Cl)c1 (stereo not drawn) | inactive
CS(=O)(=O)c1ccc(CN2C[C@@H]3OCC(=O)N(Cc4ccc(F)cc4)[C@@H]3C2)cc1 | inconclusive: 100 µM [inhibitor, partial curve, poor fit]
CC1=C[C@@H](CN2CCN(c3ccccn3)CC2)[C@H](C(C)C)C[C@H]1Cc1nnc(-c2ccc([N+](=O)[O-])cc2)o1 | inconclusive: 50.1 µM [inhibitor, partial curve, poor fit]
Cc1ccccc1C(=O)N1CCCC(Nc2ccc(F)cc2)C1 (stereo not drawn) | inconclusive: 50.1 µM [inhibitor, partial curve, poor fit]
O=C(NC1CCN(c2ccc3nnc(C4CC4)n3n2)C1)c1ccccc1F (stereo not drawn) | inconclusive: 89.1 µM [inhibitor, single point]
COCc1nncn1C1CCN(S(=O)(=O)c2ccc(F)c(F)c2)CC1 | inconclusive: 22.4 µM [inhibitor, single point]
COc1ccc(C(=O)Nc2ccc(-c3noc([C@@H]4CCCN4Cc4ccco4)n3)cn2)cc1 | inconclusive: 39.8 µM [inhibitor, partial curve, poor fit]
O=[N+]([O-])c1cccc(-c2noc([C@@H]3Cc4nc[nH]c4CN3Cc3cccs3)n2)c1 | inconclusive: 50.1 µM [inhibitor, partial curve, poor fit]

Reference: PubChem BioAssay AID1345083 (National Center for Advancing Translational Sciences (NCATS), 2018)
